Experimental data: paper PMC5432255
These are yes or no findings as the source states them, for the method shown. In cells and extracts the contact can be indirect. Some results given as binding are weak or reduced against the parent protein; the word gives no strength.

The chains behind the UniProt entries cited, without tags or fusion partners.
UniProt Q09472: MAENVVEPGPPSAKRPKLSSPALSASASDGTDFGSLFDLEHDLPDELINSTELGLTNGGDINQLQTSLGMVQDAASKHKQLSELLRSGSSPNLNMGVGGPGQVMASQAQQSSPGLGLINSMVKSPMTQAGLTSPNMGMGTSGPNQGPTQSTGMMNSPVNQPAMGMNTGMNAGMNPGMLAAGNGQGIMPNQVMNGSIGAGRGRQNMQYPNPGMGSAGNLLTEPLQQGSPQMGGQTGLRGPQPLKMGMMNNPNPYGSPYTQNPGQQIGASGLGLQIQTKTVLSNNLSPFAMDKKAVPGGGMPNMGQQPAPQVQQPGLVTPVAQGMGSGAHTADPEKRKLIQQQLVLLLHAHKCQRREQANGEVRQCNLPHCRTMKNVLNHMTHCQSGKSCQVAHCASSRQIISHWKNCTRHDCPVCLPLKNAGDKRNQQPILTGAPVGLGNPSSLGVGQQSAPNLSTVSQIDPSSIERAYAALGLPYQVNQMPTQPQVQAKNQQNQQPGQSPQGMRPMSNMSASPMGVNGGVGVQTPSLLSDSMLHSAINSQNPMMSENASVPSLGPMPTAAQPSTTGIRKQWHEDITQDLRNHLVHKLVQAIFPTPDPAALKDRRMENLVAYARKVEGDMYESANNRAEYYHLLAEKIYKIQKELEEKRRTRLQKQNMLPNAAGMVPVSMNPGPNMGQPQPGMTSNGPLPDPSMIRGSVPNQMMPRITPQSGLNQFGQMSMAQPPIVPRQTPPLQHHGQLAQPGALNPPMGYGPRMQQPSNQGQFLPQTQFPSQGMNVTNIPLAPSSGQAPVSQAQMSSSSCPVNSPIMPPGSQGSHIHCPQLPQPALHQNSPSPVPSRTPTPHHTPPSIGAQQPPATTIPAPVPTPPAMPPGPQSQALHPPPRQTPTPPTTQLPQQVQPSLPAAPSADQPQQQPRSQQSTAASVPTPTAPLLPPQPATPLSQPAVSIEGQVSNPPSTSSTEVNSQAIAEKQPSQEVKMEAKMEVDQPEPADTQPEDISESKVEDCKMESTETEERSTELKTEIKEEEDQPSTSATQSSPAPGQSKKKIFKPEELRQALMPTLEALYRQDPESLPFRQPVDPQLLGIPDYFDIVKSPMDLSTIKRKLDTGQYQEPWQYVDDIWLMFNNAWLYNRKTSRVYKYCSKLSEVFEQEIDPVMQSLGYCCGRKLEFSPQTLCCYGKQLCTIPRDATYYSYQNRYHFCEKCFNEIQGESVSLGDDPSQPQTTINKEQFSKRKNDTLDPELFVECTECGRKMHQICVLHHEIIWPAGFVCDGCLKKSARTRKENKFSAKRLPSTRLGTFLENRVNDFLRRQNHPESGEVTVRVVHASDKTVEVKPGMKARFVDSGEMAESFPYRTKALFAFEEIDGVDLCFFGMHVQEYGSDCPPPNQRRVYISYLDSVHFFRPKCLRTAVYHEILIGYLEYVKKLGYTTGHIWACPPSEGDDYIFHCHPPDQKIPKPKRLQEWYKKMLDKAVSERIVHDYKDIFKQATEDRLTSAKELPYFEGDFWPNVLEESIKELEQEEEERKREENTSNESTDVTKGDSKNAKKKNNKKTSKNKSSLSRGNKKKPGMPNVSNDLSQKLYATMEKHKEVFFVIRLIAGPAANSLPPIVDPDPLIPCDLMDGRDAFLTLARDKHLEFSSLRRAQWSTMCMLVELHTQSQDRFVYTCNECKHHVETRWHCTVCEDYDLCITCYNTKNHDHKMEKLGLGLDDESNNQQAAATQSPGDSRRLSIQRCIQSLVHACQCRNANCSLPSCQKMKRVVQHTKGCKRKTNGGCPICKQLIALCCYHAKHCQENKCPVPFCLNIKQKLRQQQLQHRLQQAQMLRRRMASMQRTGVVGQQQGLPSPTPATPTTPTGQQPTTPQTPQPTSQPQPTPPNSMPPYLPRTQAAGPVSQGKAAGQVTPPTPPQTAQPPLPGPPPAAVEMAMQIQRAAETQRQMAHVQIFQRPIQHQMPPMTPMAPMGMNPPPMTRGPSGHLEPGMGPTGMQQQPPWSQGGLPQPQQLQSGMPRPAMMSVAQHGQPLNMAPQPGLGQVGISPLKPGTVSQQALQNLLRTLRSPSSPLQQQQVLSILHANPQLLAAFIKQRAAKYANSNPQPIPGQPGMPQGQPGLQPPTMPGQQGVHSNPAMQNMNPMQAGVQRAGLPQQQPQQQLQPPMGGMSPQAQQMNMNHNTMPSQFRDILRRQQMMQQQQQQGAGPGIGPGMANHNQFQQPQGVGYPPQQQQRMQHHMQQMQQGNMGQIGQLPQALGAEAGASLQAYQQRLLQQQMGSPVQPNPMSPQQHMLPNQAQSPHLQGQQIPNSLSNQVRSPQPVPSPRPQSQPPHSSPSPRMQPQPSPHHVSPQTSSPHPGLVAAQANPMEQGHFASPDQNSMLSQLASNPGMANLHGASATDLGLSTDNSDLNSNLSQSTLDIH
UniProt Q15554: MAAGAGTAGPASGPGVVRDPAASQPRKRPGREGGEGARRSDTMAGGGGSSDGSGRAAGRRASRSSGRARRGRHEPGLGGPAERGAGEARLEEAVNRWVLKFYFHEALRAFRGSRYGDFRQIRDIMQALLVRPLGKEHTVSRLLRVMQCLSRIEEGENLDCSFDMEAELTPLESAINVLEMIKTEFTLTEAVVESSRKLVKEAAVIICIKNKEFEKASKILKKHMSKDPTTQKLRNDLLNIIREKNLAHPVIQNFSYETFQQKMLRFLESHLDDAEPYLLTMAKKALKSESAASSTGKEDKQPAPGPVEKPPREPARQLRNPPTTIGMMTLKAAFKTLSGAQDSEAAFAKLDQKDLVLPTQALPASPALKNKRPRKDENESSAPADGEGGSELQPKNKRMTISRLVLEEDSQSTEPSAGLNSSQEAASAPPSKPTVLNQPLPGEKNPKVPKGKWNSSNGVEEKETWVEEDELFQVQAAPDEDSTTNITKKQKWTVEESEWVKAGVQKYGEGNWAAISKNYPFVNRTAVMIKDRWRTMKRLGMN
UniProt P54274: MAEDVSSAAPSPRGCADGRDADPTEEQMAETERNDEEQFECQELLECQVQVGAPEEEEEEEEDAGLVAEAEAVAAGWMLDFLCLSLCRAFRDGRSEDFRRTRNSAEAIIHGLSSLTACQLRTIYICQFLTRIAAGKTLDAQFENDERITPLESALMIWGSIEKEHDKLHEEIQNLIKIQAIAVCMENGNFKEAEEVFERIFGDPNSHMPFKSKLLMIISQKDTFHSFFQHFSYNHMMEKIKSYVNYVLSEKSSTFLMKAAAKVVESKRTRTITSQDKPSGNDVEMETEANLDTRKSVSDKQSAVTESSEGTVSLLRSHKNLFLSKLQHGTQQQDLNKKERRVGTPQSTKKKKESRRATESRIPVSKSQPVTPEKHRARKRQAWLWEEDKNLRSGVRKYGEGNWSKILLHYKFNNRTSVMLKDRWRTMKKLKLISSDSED
UniProt Q92831: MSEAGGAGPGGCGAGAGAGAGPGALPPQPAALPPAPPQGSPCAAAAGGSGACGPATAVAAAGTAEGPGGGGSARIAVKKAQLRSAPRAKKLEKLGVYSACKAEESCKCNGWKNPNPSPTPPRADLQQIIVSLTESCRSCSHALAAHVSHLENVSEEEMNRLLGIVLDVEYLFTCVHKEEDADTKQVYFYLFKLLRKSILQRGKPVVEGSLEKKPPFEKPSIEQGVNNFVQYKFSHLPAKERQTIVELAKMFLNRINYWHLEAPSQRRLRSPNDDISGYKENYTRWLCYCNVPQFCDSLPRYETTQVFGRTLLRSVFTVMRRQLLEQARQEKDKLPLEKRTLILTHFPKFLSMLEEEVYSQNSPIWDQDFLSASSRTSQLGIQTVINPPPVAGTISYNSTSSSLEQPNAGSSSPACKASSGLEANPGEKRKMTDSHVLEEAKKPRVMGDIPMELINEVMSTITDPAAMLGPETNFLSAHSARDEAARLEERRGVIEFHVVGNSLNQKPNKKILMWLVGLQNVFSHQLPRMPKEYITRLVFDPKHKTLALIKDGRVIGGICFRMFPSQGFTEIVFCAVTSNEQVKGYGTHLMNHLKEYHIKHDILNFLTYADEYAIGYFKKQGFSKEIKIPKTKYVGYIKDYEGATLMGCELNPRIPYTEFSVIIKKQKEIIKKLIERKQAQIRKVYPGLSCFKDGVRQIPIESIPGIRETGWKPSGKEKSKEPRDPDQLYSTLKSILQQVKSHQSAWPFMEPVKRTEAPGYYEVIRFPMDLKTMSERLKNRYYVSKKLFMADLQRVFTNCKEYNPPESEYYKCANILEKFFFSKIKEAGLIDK
UniProt Q92830: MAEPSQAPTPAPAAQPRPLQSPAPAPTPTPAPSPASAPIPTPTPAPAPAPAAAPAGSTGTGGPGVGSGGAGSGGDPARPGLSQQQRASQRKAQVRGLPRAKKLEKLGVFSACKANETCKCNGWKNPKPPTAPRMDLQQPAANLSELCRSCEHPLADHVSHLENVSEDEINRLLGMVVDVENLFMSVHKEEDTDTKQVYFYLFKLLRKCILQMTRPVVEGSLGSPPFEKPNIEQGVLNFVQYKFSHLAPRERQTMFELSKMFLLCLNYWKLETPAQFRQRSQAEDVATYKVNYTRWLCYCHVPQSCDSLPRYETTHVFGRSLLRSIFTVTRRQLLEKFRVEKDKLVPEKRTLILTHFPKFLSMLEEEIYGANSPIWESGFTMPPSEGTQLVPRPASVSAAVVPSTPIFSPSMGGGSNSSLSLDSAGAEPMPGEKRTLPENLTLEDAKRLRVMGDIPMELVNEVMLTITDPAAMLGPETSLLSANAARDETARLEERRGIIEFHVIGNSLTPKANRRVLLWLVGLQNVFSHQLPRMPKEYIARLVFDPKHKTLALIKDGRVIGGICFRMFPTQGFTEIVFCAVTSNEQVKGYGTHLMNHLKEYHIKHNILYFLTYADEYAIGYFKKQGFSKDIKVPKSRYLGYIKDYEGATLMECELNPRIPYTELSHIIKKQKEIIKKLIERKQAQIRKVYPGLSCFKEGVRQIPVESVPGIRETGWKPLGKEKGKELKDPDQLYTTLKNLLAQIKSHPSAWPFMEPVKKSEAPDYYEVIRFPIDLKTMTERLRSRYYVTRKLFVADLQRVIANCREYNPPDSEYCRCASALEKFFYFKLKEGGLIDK

Tests used:
Experiment in all cases: proximity ligation; in situ PLA (Duolink II) on fixed, permeabilised telomerase-positive (TG1N, HeLa) and ALT (SAOS-2, TG20) cells with two primary antibodies against the endogenous proteins; for the TRF1 pairs cells treated or not with the proteasome inhibitor MG132 1.5 h before fixation
[1] = target: P300 (human (endogenous in TG1N, HeLa, SAOS-2, TG20)) (UniProt Q09472)
[2] = target: TRF2 (human (endogenous in TG1N, HeLa, SAOS-2, TG20)) (UniProt Q15554)
[3] = target: TRF1 (human (endogenous in TG1N, HeLa, SAOS-2, TG20)) (UniProt P54274)

P300/CBP-associated factor (PCAF) (from UniProt Q92831 1-832)
binding [1]: binds | binding [2]: no binding | binding [3]: no binding

General control non-derepressible 5 (GCN5) (from UniProt Q92830 1-837)
binding [2]: binds | binding [3]: binds
